Tested on: immobilized set of 288 M64-modified peptides (17×17 combination of P1 and P2 residues)
Test: multiplex encoding assay (heatmap data), P1 and P2 Gini scores
Format: binding
Conditions: NTM M64
Excerpt: To evaluate binding efficiencies of selected purified binders, a previously developed ProteoCode™ assay (disclosed in detail in US 20190145982 A1, incorporated herein) was used. This variant of the ProteoCode™ assay comprises contacting binder-coding tag conjugates with the N-terminally modified immobilized peptides associated with the recording tags. […] Sequencing of extended recording tags after the encoding cycle may be used to identify binder(s) that was (were) bound to the immobilized peptide. At the same time, estimating fractions of the recording tags being extended (encoded) during primer extension reaction provides estimate of efficiency of the encoding reaction, which directly correlates with binding affinity of the binder to the particular modified NTAA.
For the encoding assay, selected binding agents engineered from metalloenzyme scaffolds as described in the previous Examples 4-6 were used. Each binding agent was conjugated to a corresponding nucleic acid coding tag comprising barcode with identifying information regarding the binding agent. The coding tag specific for the binding agent was attached to SpyTag via a PEG linker, and the resulting fusions were reacted with binding agent-SpyCatcher fusion protein via SpyTag-SpyCatcher interaction, essentially as described in US 2021/0208150 A1. Briefly, amine-functionalized oligonucleotide coding tags were conjugated to a heterobifunctional linker containing an NHS ester, PEG24 linker and maleimide. Excess linker was removed by acetone purification, and excess linker in solution was removed by centrifugation. Purified oligonucleotide-PEG24-maleimide was incubated overnight with SpyTag peptide forming a conjugate via a cysteine residue. The sample was spun down to remove precipitate and the supernatant was transferred to a 10 k molecular weight filter to remove excess SpyTag peptide. […]

B1: 58 (protein)
chain: DWGYDDKNGPEQWSKLYPIANGNNQSPVDIKTSETKHDTSLKPISVSYNPATAKEIINVGHSFHVNFEDNDNRSVLKGGPFSDSYRLFQFHFHWGSTNEHGSEHTVDGVKYSAELHVAHWNSAKYSSLAEAASKADGLAVIGVLMKVGEANPKLQKVLDALQAIKTKGKRAPFTNFDPSTLLPSSLDFWTYPGSLTHPPLYESVTWIICKESISVSSEQLAQFRSLLSNVEGDNAVPMQHNNRPTQPLKGRTVRASF
modifications: Carbonic anhydrase I, M=M64
**Q.** Which results are given for B1?
**A.** P1 score (Gini coefficient for P1 selectivity, n=17): 0.3377; P2 score (Gini coefficient for P2 tolerance, n=17): 0.2358; Specificity towards P1: Small
